Some of the results follow.
Tested on: PfHDP1 homeodomain (GST-tagged)
Experiment: gcPBM binding intensity (ln(normalized median fluorescence intensity)); higher = stronger DNA binding
Outline: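 Binding of GST-tagged P. falciparum DNA-binding domains, expressed in E. coli and used at about 25 μg on average, was carried out for 1 h in 1× PBS containing 1% milk, 0.2 mg/ml BSA, 0.5% salmon testes DNA and 0.03% Triton X-100. The target was an Agilent 4 × 180k array of primer-extended double-stranded 36-bp intergenic genomic probes plus negative controls, read with Alexa488 anti-GST antibody at 488 nm. Binding intensity is the highest Masliner-normalised natural-log median intensity across replicate spots of either probe orientation.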

Row | Sequence | gcPBM binding intensity (ln)
1 | TGTTTGAATATAATCACACATTTATATAAAAAGTTA [CACACA_site5237] | 6.04
2 | TCTTTTTGCATGTGTGTGCGCACAAAATACACAAAA [GTGCAC_site9718] | 9.9
3 | TTGTTATGTTTTATTTGTACGTAGGTTTCTATCAAA [XGTACX_site7636] | 6.93
4 | AAATTGAAATATTCCTGTACACATTTTGAAAACTTA [XGTACX_site6101] | 6.46
5 | AAAATATAGTAACACATACACACATATATATTTATA [CACACA_site2504] | 6.74
6 | TATTAAACTAAATGTAGTACATACACAAAAGAAACC [XGTACX_site606] | 7.52
7 | AACAATAAAAATAATTGTACAAGTCTAAAAAAAATT [XGTACX_site20] | 6.28
8 | ATAAAGAAAAATAGAAGTACATATATGCATGTTAAT [XGTACX_site4480] | 6.78
9 | ATAACAAAATAATAATGTACGTATAAATATAATTTA [XGTACX_site6049] | 6.62
10 | TATATCATCATGTATGTACACACATACATATATTAT [CACACA_site8387] | 6.62
11 | TACGTATTATAAATATGTACATATAATATGTATATA [XGTACX_site468] | 6.31
12 | CAAAAACATACCTACACACACAATATGTATATATAA [CACACA_site3514] | 6.49
13 | TAACAATAACTTTATACACACATAATATAAATATAT [CACACA_site7635] | 6.57
14 | TAAAATTTTAACAAAAAAAAAAAAAAAAAAAGAAAA [CACACA_negctrl_site1335] | 5.92
15 | TAAAAAATTAAGCAACGTACAAATGAAAAGTATAAT [XGTACX_site1058] | 7.2
16 | TGATAACCAAAAAGGGGTACATACACAAAAAAATAC [XGTACX_site1254] | 7.31
17 | TACTTATTAGACTATTGTACATACATTATTAATATT [XGTACX_site7849] | 6.78
18 | AACAACATTTGATAAACACACAGAAGTATAAATATA [CACACA_site5327] | 6.57
19 | ATATTTTTTTTTTTTTGTACATATATCATTATATAT [XGTACX_site866] | 6.47
20 | TTTTTGTCTGCATACGCACACACGTGTACCATCTTA [CACACA_site1173] | 7.71
21 | TGGTTACTGTCATTAGTTATTTCTTGTTGACAATTA [CACACA_negctrl_site416] | 6.5
22 | CCGTTGAACATATATGCACACACATAAAATAAAAAA [CACACA_site8761] | 10

Row | Sequence | gcPBM binding intensity (ln)
23 | TTTGTTGACGGACACACACACATACAGATATATATA [CACACA_site5292] | 6.97
24 | ATGGTTAAAAAAAGCATACACACTATCCTCTTTGCT [CACACA_site2552] | 6.39
25 | ATAATAAATTATTATGTACACACATAATAGTATATA [CACACA_site8538] | 6.59
26 | AATATTTATATTTACACACACATAATACCTATATGT [CACACA_site6167] | 6.57
27 | TAGATACATAAAAGTGGTACATATATATATATATAT [XGTACX_site6263] | 9.28
28 | TGGAAATTCTCAGGAGTGCATATTTGCAGTTTACGT [GTGCAC_site9768] | 8.86
29 | TTATATATTTTGATTGCACACAGAATTTAAATCATG [CACACA_site8735] | 9.09
30 | TTTAATCATTTTAGCTTACACACAAAATTTTGTTAT [CACACA_site2938] | 7.59
31 | ATATATGTGCTAAAATGTACATAGTATAATATATTT [XGTACX_site1949] | 7.35
32 | ATATTTAAGATTTAATCACACACATATATATTATAT [CACACA_site8946] | 6.53
33 | ATAAAATAAAGGAAAAATATTAAGTTTTAAGAAAAT [CACACA_negctrl_site1066] | 6.31
34 | AAAATATATTCAACTTGTACATATATATATATATAT [XGTACX_site7629] | 9.4
35 | TTTTTTTTTTGCACGTGTACATAAAAATATATATAT [XGTACX_site3116] | 9.36
36 | TTTTTGTAATGACACACACACAAACAGAAAAAATAA [CACACA_site7062] | 6.76
37 | GGATTTTTCGAATCATGTACATATTTAATTAAAAAA [XGTACX_site7939] | 6.44
38 | TACATAAACATTTATACACACATTATGTATACATAT [CACACA_site405] | 7.05
39 | TATTTTTCCATATGCACACACACCGTATCTAGAATA [CACACA_site6654] | 10.4
40 | AACTTTGGCAAACACACACACACACCCACACCCACA [CACACA_site588] | 6.62
41 | TAGAATGTATGTAGTGCACACCTCTATAATATATTA [CACACA_site1873] | 10.5
42 | TTCTCACTTTTAAATTTTATTCAAAAATAAGGAAAG [XGTACX_negctrl_site444] | 6.56
43 | GAGAGTAAAACAAATATACACACCATAAAGTTATAA [CACACA_site1686] | 6.47
44 | ATTTCGTTCTTTTATGCACACTCAACATATAAATTA [CACACA_site8322] | 9.99

Row | Sequence | gcPBM binding intensity (ln)
45 | ATATATATATATAAATGTACATATGTATAATTCATA [XGTACX_site6679] | 9.04
46 | TTTTTATTGCAATACTTATATTTTTTTATGATTAAA [TGCATGCA_negctrl_site147] | 10.1
47 | ATAATAATAAAGTATGCATGCATATAATATAATATA [TGCATGCA_site796] | 6.99
48 | CAATAATATATATATTGTACATTTTTTTTTATTATT [XGTACX_site3149] | 6.64
49 | AAAGATTCTTTGAATTGTACAAATATATTTACTCAC [XGTACX_site8772] | 6.56
50 | TATATTATTTTCTTTTGTACACATATATATCAGTGT [XGTACX_site664] | 6.8
51 | ATGTTCCATTTTACTTGTACTAATTTTTTCCTATCT [XGTACX_site6474] | 6.72
52 | ATGATAATTTTTTTCTCACACACAAATATTTTAATC [CACACA_site3665] | 6.5
53 | TTAATGGCAAAATAGGCACACACACCGATACATATA [CACACA_site8263] | 6.77
54 | ATAATATTTAGGTGTGCACACAAACATACATATATA [CACACA_site9120] | 10.9
55 | ACAGTAGCCAGTAACTGTACGGATTGTAGAGATCAG [XGTACX_site4873] | 6.55
56 | ATTATTTTTAAAAATTGTACAGTATAAGAGAGAAAT [XGTACX_site7094] | 7.39
57 | AATAAAAAAATATATTGTACTAATAATTATATGTTT [XGTACX_site2246] | 6.47
58 | TATTGTAAAAAGATTACACACGTTCTATATACTTTT [CACACA_site5379] | 6.46
59 | AAATCACATAAAACATAATCAAATGAAATATAATCA [CACACA_negctrl_site123] | 6.18
60 | TAAATATTATTATATACATGCACTTACAACTTTTTT [TGCATGCA_site877] | 7.3
61 | ACTGTAAATTTATTCGGTACACATATAAATAATATT [XGTACX_site7346] | 6.54
62 | AAAAAATCACAACACACACACACACTAATAAAAAAA [CACACA_site8410] | 6.84
63 | ATAAAGGTTTTCCAAGCATGCCACATAGTGACATAC [TGCATGCA_site193] | 6
64 | CAATATAAAATAAAATGTACTTGTAGTAAAGGGATA [XGTACX_site1452] | 6.66
65 | AGATAGATACATACACGTACATATATATATACACAT [XGTACX_site4755] | 6.74
66 | GATGAGGACAAACACACACACATAAGTTGATACATA [CACACA_site3424] | 6.91

Row | Sequence | gcPBM binding intensity (ln)
67 | TTTATGGATGTGTATGCATGCCTAAATAAATATATG [TGCATGCA_site916] | 6.79
68 | ACGACATATGGATGATGTACTATCTTTATTATACAT [XGTACX_site6857] | 6.43
69 | TAAATAATGTAAAAAACATCATCAAAATGTTAATTA [CACACA_negctrl_site1768] | 5.58
70 | TCTCAAAAAAAAAAAAAAAAAAAAAAATTAAAAAAT [CACACA_negctrl_site1120] | 5.51
71 | TGAAATTTATAATAGTGTACAAAGAAAAAAAAAAAA [XGTACX_site4965] | 6.48
72 | ATTAGAAAAAAGATAGCACACACGGCCCAATATATA [CACACA_site2417] | 6.78
73 | AAGGTTATATAAAAAAGTACGCATAAGATGTTGTTC [XGTACX_site807] | 6.59
74 | TATTATAATATGTAGCGTACATTTTTTCTTTCTTTT [XGTACX_site7831] | 6.49
75 | TATATTTATATTCTTACATTTTTTATGTTTTTTTTT [CACACA_negctrl_site1017] | 6.11
76 | AAAATAACATAAAAGAGTACTAAACCAAGATCAAAT [XGTACX_site7973] | 6.88
77 | TAAACAGACATATAAACACACATATAAACCGACATA [CACACA_site2478] | 6.76
78 | GTCATATTATTCTTTTCACACACGCGTTAATAATAA [CACACA_site9302] | 7.8
79 | ATACCTAAAAAATATACACACATATTTATAAATATA [CACACA_site7260] | 6.71
80 | TAGAATAAACCAAGAAGTACTGTTTAATGAAAAGTA [XGTACX_site5712] | 6.72
81 | TATAAATATATATATACACACACATACACAAAAAAA [CACACA_site9191] | 7.13
82 | ATATATTATATGTACACACACATATAAGGGATTATA [CACACA_site5] | 6.61
83 | TATTACTTGATATATACACACATATAACATAAATGC [CACACA_site7783] | 6.68
84 | AAAAATATGAAGACACAATATAGAAATAAAAATATA [XGTACX_negctrl_site244] | 6.5
85 | TTTTTTTTTTTCTTTGCACACAGATAACTTGAAATT [CACACA_site2184] | 8.45
86 | AATTTAATTATGGTAACACACAATAAAAAAAAATCT [CACACA_site568] | 6.53
87 | ATATTTTATTTTCCATGTACACAAAAAAAAAAAAAA [XGTACX_site8327] | 6.52
88 | AAGAAAATAAAGGATATGAAAAATAAAAAAAAGGAG [TGCATGCA_negctrl_site265] | 6.98

From the supplement of paper PMC11417369
